What was measured:
Test in all cases: cell-based or functional assay
[1] = biological target: FGFR/β-Klotho receptor complex
Glucagon receptor = biological target: Glucagon receptor
human GLP-1 receptor = human GLP-1 receptor (human, UniProt P43220)

Binder	FGF21 activity EC50 (luciferase reporter) [1] [nM]	GCGR agonist activity EC50 (luciferase reporter) (Glucagon receptor) [nM]	GLP-1R agonist activity EC50 (luciferase reporter) (human GLP-1 receptor) [nM]
C137 L10F8L9M5 (Fc fusion) HSQGTFTSDYSKYLDSERAQDFVQWLMNTGPSSGAPPPSGGGGAGGGGAGGGGA[human IgG4 Fc with S228P N297A (EU numbers) omitted here]GGGGSGGGGSGGGGSHPIPDSSPLLQFGGQVRQRYLYTDDAQQTEAHLEIREDGTVGGAEDQSPESLLQLKALKPGVIQILGVKTSRFLCQRPDGALYGSLHFDPEACSFRERLLEDGYNVYQSEAHGLPLHCPGNKSPHRDPAPRGPCRFLPLPGLPPALPEPPGILAPQPPDVGSSDPLSMVGGSQGRSPSYES	0.78	1.77	1.79
C232 L9F3L10M3 (Fc fusion) HSQGTFTSDYSKYLDSQAAQDFVQWLMNTGPSSGAPPPSGGGGSGGGGSGGGGS[human IgG1 Fc with changes omitted here]GGGGAGGGGAGGGGADSSPLLQFGGQVRQRYLYTDDAQQTEAHLEIREDGTVGGAADQSPESLLQLKALKPGVIQILGVKTSRFLCQRPDGALYGSLHFDPEACSFRELLLEDGYNVYQSEAHGLPLHCPGNKSPHRDPAPRGPCRFLPLPGLPPALPEPPGILAPQPPDVGSSDPLAMVGPSQGRSPSYAS	0.65	1.45	1.79
C187 L9F4L12M7 (Fc fusion) HSQGTFTSDYSKYLDSQRAQDFVQWLMNTGPSSGAPPPSGGGGSGGGGSGGGGS[human IgG1 Fc with changes omitted here]GGGAGGGGAGGGGAAHPIPDSSPLLQFGGQVRQEYLYTDDAQQTEAHLEIREDGTVGGAADQSPESLLQLKALKPGVIQILGVKTSRFLCQRPDGALYGSLHFDPEACSFRERLLEDGYNVYQSEAHGLPLHLPGNKSPHRDPAPRGPARFLPLPGLPPALPEPPGILAPQPPDVGSSDPLSMVGGSQGRSPSYES	0.79	1.69	1.88
C364 L10F4L12M8 (Fc fusion) HSQGTFTSDYSKYLDGQAAQDFVQWLMNGGPSSGAPPPSGGGGAGGGGAGGGGA[human IgG1 Fc with changes omitted here]GGGAGGGGAGGGGAAHPIPDSSPLLQFGGQVRQRYLYTDDAQQTEAHLEIREDGTVGGAADQSPESLLQLKALKPGVIQILGVKTSRFLCQRPDGALYGSLHFDPEACSFRERLLEDGYNVYQSEAHGLPLHLPGNKSPHRDPAPRGPARFLPLPGLPPALPEPPGILAPQPPDVGSSDPLSMVGGSQGRSPSAAS	0.73	1.27	1.87
C399 L12F4L19M8 (Fc fusion) HSQGTFTSDYSKYLDGERAQDFVQWLMNTGPSSGAPPPSGGGGAGGGGAGGGGAA[human IgG1 Fc with changes omitted here]GGGSGGGGSGGGGSGGGGSGGGGSHPIPDSSPLLQFGGQVRQRYLYTDDAQQTEAHLEIREDGTVGGAADQSPESLLQLKALKPGVIQILGVKTSRFLCQRPDGALYGSLHFDPEACSFRERLLEDGYNVYQSEAHGLPLHLPGNKSPHRDPAPRGPARFLPLPGLPPALPEPPGILAPQPPDVGSSDPLSMVGGSQGRSPSAAS	0.96	1.82	1.89
C266 L13F7L13M4 (Fc fusion) HSQGTFTSDYSKYLDSQAAQDFVQWLMNGPSSGAPPPSGGGGSGGGGSGGGGSA[human IgG4 Fc with S228P N297A (EU numbers) omitted here]GGGGSGGGGSGGGGSAHPIPDSSPLLQFGGQVRQRYLYTDDAQQTEAHLEIREDGTVGGAADQSPESLLQLKALKPGVIQILGVKTSRFLCQRPDGALYGSLHFDPEACSFRERLLEDGYNVYQSEAHGLPLHCPGNKSPHRDPAPRGPCRFLPLPGLPPALPEPPGILAPQPPDVGSSDPLAMVGGSQGRSPSYES	0.69	1.34	1.37
C392 L11F7L10M5 (Fc fusion) HSQGTFTSDYSKYLDEEAAQDFVQWLMNTGPSSGAPPPSGGSGGGGSGGGGSGGA[human IgG4 Fc with S228P N297A (EU numbers) omitted here]GGGGAGGGGAGGGGAHPIPDSSPLLQFGGQVRQRYLYTDDAQQTEAHLEIREDGTVGGAEDQSPESLLQLKALKPGVIQILGVKTSRFLCQRPDGALYGSLHFDPEACSFRERLLEDGYNVYQSEAHGLPLHCPGNKSPHRDPAPRGPCRFLPLPGLPPALPEPPGILAPQPPDVGSSDPLSMVGGSQGRSPSYES	0.85	1.46	1.67
C462 L13F8L10M2 (Fc fusion) HSQGTFTSDYSKYLDEEAAQDFVQWLMNGGPSSGAPPPSGGGGSGGGGSGGGGSA[human IgG4 Fc with S228P N297A (EU numbers) omitted here]GGGGAGGGGAGGGGAHPIPDSSPLLQFGGQVRQRYLYTDDAQQTEAHLEIREDGTVGGAADQSPESLLQLKALKPGVIQILGVKTSRFLCQRPDGALYGSLHFDPEACSFRERLLEDGYNVYQSEAHGLPLHCPGNKSPHRDPAPRGPCRFLPLPGLPPALPEPPGILAPQPPDVGSSDPLSMVGGSQGRSPSYES	0.58	1.63	1.21
C462 L13F4L10M2 (Fc fusion) HSQGTFTSDYSKYLDEEAAQDFVQWLMNGGPSSGAPPPSGGGGSGGGGSGGGGSA[human IgG1 Fc with changes omitted here]GGGAGGGGAGGGGAHPIPDSSPLLQFGGQVRQRYLYTDDAQQTEAHLEIREDGTVGGAADQSPESLLQLKALKPGVIQILGVKTSRFLCQRPDGALYGSLHFDPEACSFRERLLEDGYNVYQSEAHGLPLHCPGNKSPHRDPAPRGPCRFLPLPGLPPALPEPPGILAPQPPDVGSSDPLSMVGGSQGRSPSYES	0.88	1.27	1.32
C228 L13F4L13M12 (Fc fusion) HSQGTFTSDYSKYLDEERAQDFVQWLMNTGPSSGAPPPSGGGGSGGGGSGGGGSA[human IgG1 Fc with changes omitted here]GGGSGGGGSGGGGSAHPIPDSSPLLQFGGQVRQRYLYTDDAQQTEAHLEIREDGTVGGAADQSPESLLQLKALKPGVIQILGVKTSRFLCQRPDGALYGSLHFDPEACSFRERLLEDGYNVYQSEAHGLPLHCPGNKSPHRDPAPRGPCRFLPLPGLPPALPEPPGILAPQPPDVGSSDPLAMVGGSQGRSPSYAS	1.37	1.38	1.27
C209 L13F8L13M9 (Fc fusion) HSQGTFTSDYSKYLDSEAAQDFVQWLMNGGPSSGAPPPSGGGGSGGGGSGGGGSA[human IgG4 Fc with S228P N297A (EU numbers) omitted here]GGGGSGGGGSGGGGSAHPIPDSSPLLQFGGQVRQRYLYTDDAQQTEAHLEIREDGTVGGAADQSPESLLQLKALKPGVIQILGVKTSRFLCQRPDGALYGSLHFDPEACSFRERLLEDGYNVYQSEAHGLPLHCPGNKSPHRDPAPRGPCRFLPLPGLPPALPEPPGILAPQPPDVGSSDPLAMVGGSQGRSPSYAS	1.13	1.45	1.74
C462 L11F8L13M1 (Fc fusion) HSQGTFTSDYSKYLDEEAAQDFVQWLMNGGPSSGAPPPSGGSGGGGSGGGGSGGA[human IgG4 Fc with S228P N297A (EU numbers) omitted here]GGGGSGGGGSGGGGSAHPIPDSSPLLQFGGQVRQRYLYTDDAQQTEAHLEIREDGTVGGAADQSPESLLQLKALKPGVIQILGVKTSRFLCQRPDGALYGSLHFDPEACSFRERLLEDGYNVYQSEAHGLPLHLPGNKSPHRDPAPRGPARFLPLPGLPPALPEPPGILAPQPPDVGSSDPLSMVGGSQGRSPSYES	0.78	1.17	1.41
C289 L12F4L8M10 (Fc fusion) HSQGTFTSDYSKYLDGEAAQDFVQWLMNGGPSSGAPPPSGGGGAGGGGAGGGGAA[human IgG1 Fc with changes omitted here]GSGGGAGGGGSDSSPLLQFGGQVRQRYLYTDDAQQTEAHLEIREDGTVGGAADQSPESLLQLKALKPGVIQILGVKTSRFLCQRPDGALYGSLHFDPEACSFRERLLEDGYNVYQSEAHGLPLHCPGNKSPHRDPAPRGPCRFLPLPGLPPALPEPPGILAPQPPDVGSSDPLAMVGGSQGRSPSYAS	1.36	1.38	1.77
C462 L9F2L9M10 (Fc fusion) HSQGTFTSDYSKYLDEEAAQDFVQWLMNGGPSSGAPPPSGGGGSGGGGSGGGGS[human IgG1 Fc with changes omitted here]GGGSGGGGSGGGGSDSSPLLQFGGQVRQRYLYTDDAQQTEAHLEIREDGTVGGAADQSPESLLQLKALKPGVIQILGVKTSRFLCQRPDGALYGSLHFDPEACSFRERLLEDGYNVYQSEAHGLPLHCPGNKSPHRDPAPRGPCRFLPLPGLPPALPEPPGILAPQPPDVGSSDPLAMVGGSQGRSPSYAS	1.54	1.34	1.21

Source: patent publication US20210070829A1 (ZHEJIANG DOER BIOLOGICS, published 2021)
